Data published in the supplement of paper PMC4604168 (melanoma cell lines).
The list shows a part of the results. Repeats are few or missing, and single values can be far off.

System: IST-MEL1
Experiment: cell count relative to DMSO control; melanoma cells; higher = more viable cells
Conditions: library dose: low library concentration; 72 h
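Also: cell number obtained by counting DAPI-stained nuclei in high-throughput microscope images with image analysis software, screen run in 1,536-well plates.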

**Q.** How did the cell count turn out when `C=C(c1ccc(C(=O)O)cc1)c1cc2c(cc1C)C(C)(C)CCC2(C)C` [Bexarotene] + Cn1cc(/C=C2\C(=O)Nc3cccnc32)c2ccccc21 [GW441756] (first compound 2 µM, partner dose 0.4 µM) was run?
**A.** Its cell count is 102%.

**Q.** Which cell count does the source give for `NC1(c2ccc(-c3nc4ccn5c(=O)[nH]nc5c4cc3-c3ccccc3)cc2)CCC1` + CC(C)CCN1c2nc(Nc3cc(F)c(O)c(F)c3)ncc2N(C)C(=O)C1C [BID1870] (first compound 0.4 µM, partner dose 0.2 µM) here?
**A.** Its cell count is 83.6%.

**Q.** For `CS(=O)(=O)c1ccc(C(=O)Nc2ccc(Cl)c(-c3ccccn3)c2)c(Cl)c1` [vismodegib] + N#Cc1c(O)c2c(-c3ccc(-c4ccccc4O)cc3)csc2[nH]c1=O [A769662] (first compound 1 µM, partner dose 2 µM), which cell count is on record?
**A.** Its cell count is 97%.

**Q.** How did the cell count turn out when `CN(c1ncccc1CNc1nc(Nc2ccc3c(c2)CC(=O)N3)ncc1C(F)(F)F)S(C)(=O)=O` + COC(=O)c1sccc1S(=O)(=O)Nc1ccc(Nc2ccccc2)cc1OC [GSK0660] (first compound 0.08 µM, partner dose 1 µM) was run?
**A.** Its cell count is 97.2%.

**Q.** How did the cell count turn out when `CCCS(=O)(=O)Nc1ccc(F)c(C(=O)c2c[nH]c3ncc(Cl)cc23)c1F` + COC(=O)c1sccc1S(=O)(=O)Nc1ccc(Nc2ccccc2)cc1OC [GSK0660] (first compound 0.08 µM, partner dose 1 µM) was run?
**A.** Its cell count is 96.3%.

**Q.** `NC1(c2ccc(-c3nc4ccn5c(=O)[nH]nc5c4cc3-c3ccccc3)cc2)CCC1` + COc1cc(N2CCC(N3CCN(C)CC3)CC2)ccc1Nc1ncc(Cl)c(Nc2ccccc2S(=O)(=O)C(C)C)n1 [NVP-TAE684] (first compound 0.4 µM, partner dose 0.08 µM) was tested. Which cell count did it give?
**A.** The cell count was 93.9%.

**Q.** For `CS(=O)(=O)c1ccc(C(=O)Nc2ccc(Cl)c(-c3ccccn3)c2)c(Cl)c1` [vismodegib] + CCN(CC)CCCCNc1ncc2cc(-c3cc(OC)cc(OC)c3)c(NC(=O)NC(C)(C)C)nc2n1 [PD173074] (first compound 1 µM, partner dose 0.1 µM), which cell count is on record?
**A.** The cell count was 97.9%.

**Q.** How did the cell count turn out when `CCCS(=O)(=O)Nc1ccc(F)c(C(=O)c2c[nH]c3ncc(Cl)cc23)c1F` + N#Cc1c(O)c2c(-c3ccc(-c4ccccc4O)cc3)csc2[nH]c1=O [A769662] (first compound 0.08 µM, partner dose 2 µM) was run?
**A.** Its cell count is 81.1%.

**Q.** Which cell count does the source give for `CCCS(=O)(=O)Nc1ccc(F)c(C(=O)c2c[nH]c3ncc(Cl)cc23)c1F` + COc1ccc2c(c1)CCC1C2CCC2(C)C(NCCCCCCN3C(=O)C=CC3=O)CCC12 [U73122] (first compound 0.08 µM, partner dose 0.4 µM) here?
**A.** The cell count was 90.6%.

**Q.** With `CN(c1ncccc1CNc1nc(Nc2ccc3c(c2)CC(=O)N3)ncc1C(F)(F)F)S(C)(=O)=O` + O=S(=O)(c1ccccc1)N(CC(F)(F)F)c1ccc(C(O)(C(F)(F)F)C(F)(F)F)cc1 [T0901317] (first compound 0.08 µM, partner dose 1.4 µM) as the molecule, how does the cell count read?
**A.** The cell count was 88.9%.

**Q.** With `CCCS(=O)(=O)Nc1ccc(F)c(C(=O)c2c[nH]c3ncc(Cl)cc23)c1F` + O=C1NC(=O)/C(=C/c2ccc(-c3ccc(F)cc3O)o2)S1 [AS252424] (first compound 0.08 µM, partner dose 1 µM) as the molecule, how does the cell count read?
**A.** The cell count was 103%.

**Q.** How did the cell count turn out when `NC1(c2ccc(-c3nc4ccn5c(=O)[nH]nc5c4cc3-c3ccccc3)cc2)CCC1` + COc1cc2ncnc(Nc3ccc(Oc4ccccc4)cc3)c2cc1OC [SrcI1] (first compound 0.4 µM, partner dose 2 µM) was run?
**A.** The cell count was 96.1%.

**Q.** For `C=C(c1ccc(C(=O)O)cc1)c1cc2c(cc1C)C(C)(C)CCC2(C)C` [Bexarotene] + COc1cc2ncnc(Nc3ccc(Oc4ccccc4)cc3)c2cc1OC [SrcI1] (first compound 2 µM, partner dose 2 µM), which cell count is on record?
**A.** The cell count was 105%.

**Q.** `C=C(c1ccc(C(=O)O)cc1)c1cc2c(cc1C)C(C)(C)CCC2(C)C` [Bexarotene] + O=S(=O)(c1ccccc1)N(CC(F)(F)F)c1ccc(C(O)(C(F)(F)F)C(F)(F)F)cc1 [T0901317] (first compound 2 µM, partner dose 1.4 µM) was tested. Which cell count did it give?
**A.** Its cell count is 98.5%.

**Q.** For `C=C(c1ccc(C(=O)O)cc1)c1cc2c(cc1C)C(C)(C)CCC2(C)C` [Bexarotene] + Oc1cc(-c2nc(-c3ccccc3)[nH]c2-c2ccncc2)ccc1Cl [L779450] (first compound 2 µM, partner dose 0.2 µM), which cell count is on record?
**A.** The cell count was 99.2%.
